Data taken from US5618830A (priority 1995, dated 1997).

Target: HIV Reverse Transcriptase (Human immunodeficiency virus type 1 group M subtype B, UniProt P04585)
Experiment: HIV Reverse Transcriptase assay
Assay type: biochemical

Work on `O=C(O)C(=O)CC(=O)C1(Cc2ccc(Cl)cc2)CCCN(Cc2ccccc2)C1` (stereo not shown) [Compound A, 4-[N-benzyl-3-(4-chlorobenzyl)piperidin-3-yl]2,4-dioxobutanoic acid hydrochloride] yielded an IC50 of over 300 µM.

Where a name gives a salt, the structure may show the parent alone.
